Test results from PMC12167477, “Setdb1 and Atf7IP form a hetero-trimeric complex that blocks Setdb1 nuclear export” (The Journal of Biological Chemistry, 2025).
Results are given in words; binding and its absence hold for the method and conditions named. In cells and extracts the contact can be indirect. Some binding calls cover weakened binding; strength is not graded here. Tags and fused reporters may be left off the sequences shown.

Legend:
Assay in all cases: co-IP; HEK293 cells transiently co-transfected; lysis in 30 mM HEPES pH 7.9, 400 mM NaCl, 10% glycerol, 0.05% Tween-20, 2 mM BME, Benzonase; anti-DYKDDDDK magnetic beads, FLAG peptide elution, blots with anti-FLAG, anti-HA, anti-Myc
[1] = biological target: T1, full-length Atf7IP2, Flag- or Myc-tagged (UniProt Q5U623)
T1 sequence: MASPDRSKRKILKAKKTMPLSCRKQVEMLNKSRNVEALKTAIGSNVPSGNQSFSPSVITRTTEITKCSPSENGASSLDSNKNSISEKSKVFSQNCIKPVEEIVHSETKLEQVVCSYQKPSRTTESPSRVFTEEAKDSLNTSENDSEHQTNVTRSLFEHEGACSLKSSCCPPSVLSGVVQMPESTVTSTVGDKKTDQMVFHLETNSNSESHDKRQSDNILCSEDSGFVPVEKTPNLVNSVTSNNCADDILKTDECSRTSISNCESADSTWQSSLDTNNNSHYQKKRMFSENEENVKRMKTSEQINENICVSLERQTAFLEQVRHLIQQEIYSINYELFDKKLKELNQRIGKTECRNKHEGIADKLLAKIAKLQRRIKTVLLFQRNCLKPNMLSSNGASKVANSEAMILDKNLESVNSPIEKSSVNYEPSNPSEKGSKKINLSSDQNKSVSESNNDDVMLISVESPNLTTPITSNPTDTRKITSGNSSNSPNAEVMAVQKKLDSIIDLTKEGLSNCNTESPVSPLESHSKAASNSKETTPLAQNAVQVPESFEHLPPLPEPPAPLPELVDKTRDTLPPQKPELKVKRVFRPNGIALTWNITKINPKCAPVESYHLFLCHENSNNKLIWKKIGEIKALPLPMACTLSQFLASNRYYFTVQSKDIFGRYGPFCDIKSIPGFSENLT

[2] = biological target: T2, FLAG-Atf7IP(Δ574-666) (human) (UniProt Q6VMQ6)
T2 sequence: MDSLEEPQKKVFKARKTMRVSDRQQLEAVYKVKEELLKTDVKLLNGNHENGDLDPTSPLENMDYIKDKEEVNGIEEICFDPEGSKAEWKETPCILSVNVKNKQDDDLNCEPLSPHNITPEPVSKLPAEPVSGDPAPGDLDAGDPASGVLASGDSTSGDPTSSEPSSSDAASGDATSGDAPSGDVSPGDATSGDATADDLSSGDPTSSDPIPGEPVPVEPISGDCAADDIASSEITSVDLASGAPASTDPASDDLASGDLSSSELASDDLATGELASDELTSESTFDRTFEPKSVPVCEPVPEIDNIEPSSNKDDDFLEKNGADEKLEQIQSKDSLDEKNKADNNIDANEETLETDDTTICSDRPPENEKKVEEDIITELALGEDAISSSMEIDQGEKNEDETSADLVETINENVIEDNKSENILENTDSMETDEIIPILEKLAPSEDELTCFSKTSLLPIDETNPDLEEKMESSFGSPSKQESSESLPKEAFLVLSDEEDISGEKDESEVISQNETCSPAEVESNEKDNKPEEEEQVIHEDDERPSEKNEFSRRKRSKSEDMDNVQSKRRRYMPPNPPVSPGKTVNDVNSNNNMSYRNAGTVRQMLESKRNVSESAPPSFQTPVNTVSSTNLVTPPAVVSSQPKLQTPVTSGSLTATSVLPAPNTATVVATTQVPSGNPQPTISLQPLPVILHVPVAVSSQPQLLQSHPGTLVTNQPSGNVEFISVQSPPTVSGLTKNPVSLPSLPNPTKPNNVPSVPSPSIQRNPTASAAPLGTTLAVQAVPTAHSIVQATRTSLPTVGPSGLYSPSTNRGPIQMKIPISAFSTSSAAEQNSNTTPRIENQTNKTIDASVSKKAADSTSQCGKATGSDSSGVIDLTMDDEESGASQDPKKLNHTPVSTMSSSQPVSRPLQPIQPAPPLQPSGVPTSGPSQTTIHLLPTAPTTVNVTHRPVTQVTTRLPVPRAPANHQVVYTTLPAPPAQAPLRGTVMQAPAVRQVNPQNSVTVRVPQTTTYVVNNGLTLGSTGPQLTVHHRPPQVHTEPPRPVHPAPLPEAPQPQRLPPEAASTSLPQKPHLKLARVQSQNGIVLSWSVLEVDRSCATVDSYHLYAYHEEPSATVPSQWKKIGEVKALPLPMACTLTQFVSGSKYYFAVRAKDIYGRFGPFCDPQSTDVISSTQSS

[3] = biological target: T3, Flag-Atf7IP(1-448) (human) (UniProt Q6VMQ6)
T3 sequence: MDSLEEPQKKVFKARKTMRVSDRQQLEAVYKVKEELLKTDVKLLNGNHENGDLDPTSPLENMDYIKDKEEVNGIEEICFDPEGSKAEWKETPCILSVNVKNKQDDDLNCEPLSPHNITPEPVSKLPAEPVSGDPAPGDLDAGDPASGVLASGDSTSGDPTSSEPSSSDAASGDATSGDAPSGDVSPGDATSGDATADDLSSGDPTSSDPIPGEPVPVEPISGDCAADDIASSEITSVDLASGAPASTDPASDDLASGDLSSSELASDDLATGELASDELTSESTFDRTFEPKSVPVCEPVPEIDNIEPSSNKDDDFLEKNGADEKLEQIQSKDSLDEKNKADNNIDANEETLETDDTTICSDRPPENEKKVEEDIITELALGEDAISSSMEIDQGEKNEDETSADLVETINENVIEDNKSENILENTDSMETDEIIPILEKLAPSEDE

B1: full-length Atf7IP, FLAG- or Myc-tagged (protein, UniProt Q6VMQ6 1-1270)
chain: MDSLEEPQKKVFKARKTMRVSDRQQLEAVYKVKEELLKTDVKLLNGNHENGDLDPTSPLENMDYIKDKEEVNGIEEICFDPEGSKAEWKETPCILSVNVKNKQDDDLNCEPLSPHNITPEPVSKLPAEPVSGDPAPGDLDAGDPASGVLASGDSTSGDPTSSEPSSSDAASGDATSGDAPSGDVSPGDATSGDATADDLSSGDPTSSDPIPGEPVPVEPISGDCAADDIASSEITSVDLASGAPASTDPASDDLASGDLSSSELASDDLATGELASDELTSESTFDRTFEPKSVPVCEPVPEIDNIEPSSNKDDDFLEKNGADEKLEQIQSKDSLDEKNKADNNIDANEETLETDDTTICSDRPPENEKKVEEDIITELALGEDAISSSMEIDQGEKNEDETSADLVETINENVIEDNKSENILENTDSMETDEIIPILEKLAPSEDELTCFSKTSLLPIDETNPDLEEKMESSFGSPSKQESSESLPKEAFLVLSDEEDISGEKDESEVISQNETCSPAEVESNEKDNKPEEEEQVIHEDDERPSEKNEFSRRKRSKSEDMDNVQSKRRRYMEEEYEAEFQVKITAKGDINQKLQKVIQWLLEEKLCALQCAVFDKTLAELKTRVEKIECNKRHKTVLTELQAKIARLTKRFEAAKEDLKKRHEHPPNPPVSPGKTVNDVNSNNNMSYRNAGTVRQMLESKRNVSESAPPSFQTPVNTVSSTNLVTPPAVVSSQPKLQTPVTSGSLTATSVLPAPNTATVVATTQVPSGNPQPTISLQPLPVILHVPVAVSSQPQLLQSHPGTLVTNQPSGNVEFISVQSPPTVSGLTKNPVSLPSLPNPTKPNNVPSVPSPSIQRNPTASAAPLGTTLAVQAVPTAHSIVQATRTSLPTVGPSGLYSPSTNRGPIQMKIPISAFSTSSAAEQNSNTTPRIENQTNKTIDASVSKKAADSTSQCGKATGSDSSGVIDLTMDDEESGASQDPKKLNHTPVSTMSSSQPVSRPLQPIQPAPPLQPSGVPTSGPSQTTIHLLPTAPTTVNVTHRPVTQVTTRLPVPRAPANHQVVYTTLPAPPAQAPLRGTVMQAPAVRQVNPQNSVTVRVPQTTTYVVNNGLTLGSTGPQLTVHHRPPQVHTEPPRPVHPAPLPEAPQPQRLPPEAASTSLPQKPHLKLARVQSQNGIVLSWSVLEVDRSCATVDSYHLYAYHEEPSATVPSQWKKIGEVKALPLPMACTLTQFVSGSKYYFAVRAKDIYGRFGPFCDPQSTDVISSTQSS
[1]
  binding: binds
[2]
  binding: no binding
[3]
  binding: no binding
